# According to US11944613B2, “CYP2J2 antagonists in the treatment of pain” (FRAUNHOFER-GESELLSCHAFT ZUR FÖRDERUNG DER ANGEWANDTEN …, priority 2014, dated 2024):
# Legend:
# [1] = system: neuron enriched DRG cultures; assay: cAMP in neuron-enriched DRG cultures; format: cell-based, mouse; details: 1 μM for 15 minutes
# TRPV1 = TRPV1 (Mus musculus, UniProt Q704Y3); assay: Calcium imaging: TRPV1 sensitization, double capsaicin stimulation of DRG neurons
# [2] = system: lamina II neurons of spinal cord slices; assay: sEPSC recordings in lamina II neurons of spinal cord slices; format: cell-based
# Procedure: (d) Frequency of sEPSCs. […] (E) Amplitude of sEPSCs. […] To confirm the effect of TRPV1 sensitization by 9,10-EpOME with electrophysiological means, the inventors measured sEPSCs from lamina II neurons of spinal cord slices using two capsaicin stimulations [1 μM] and incubating the cells prior to the second capsaicin stimulus with 9,10-EpOME [1 μM] (FIG. 3C). […] In combination with capsaicin, however, the sEPSC frequency was strongly potentiated (FIG. 3D). However, no difference in the amplitude of sEPSCs could be observed with either 9,10-EpOME, […] or the combination of both substances (FIG. 3E).
# [3] = system: G-protein coupled receptor in DRGs; assay: [35S] GTPγS binding assay in membrane fractions of rat DRGs; format: biochemical; details: 1 μM 9,10-EpOME, 30 minutes, 30 μM GDP
# TRPA1 = target: T1, TRPA1 (Mus musculus, UniProt Q8BLA8); assay: Calcium imaging: TRPA1 sensitization, mustard oil (AITC) responses of DRG neurons; format: cell-based; details: 9,10-EpOME 1 μM
# T1 construct: Murine DRGs were dissected from spinal segments; endogenous in cells; host or cells: primary mouse dorsal root ganglion neurons
# T1 sequence (Q8BLA8 whole entry): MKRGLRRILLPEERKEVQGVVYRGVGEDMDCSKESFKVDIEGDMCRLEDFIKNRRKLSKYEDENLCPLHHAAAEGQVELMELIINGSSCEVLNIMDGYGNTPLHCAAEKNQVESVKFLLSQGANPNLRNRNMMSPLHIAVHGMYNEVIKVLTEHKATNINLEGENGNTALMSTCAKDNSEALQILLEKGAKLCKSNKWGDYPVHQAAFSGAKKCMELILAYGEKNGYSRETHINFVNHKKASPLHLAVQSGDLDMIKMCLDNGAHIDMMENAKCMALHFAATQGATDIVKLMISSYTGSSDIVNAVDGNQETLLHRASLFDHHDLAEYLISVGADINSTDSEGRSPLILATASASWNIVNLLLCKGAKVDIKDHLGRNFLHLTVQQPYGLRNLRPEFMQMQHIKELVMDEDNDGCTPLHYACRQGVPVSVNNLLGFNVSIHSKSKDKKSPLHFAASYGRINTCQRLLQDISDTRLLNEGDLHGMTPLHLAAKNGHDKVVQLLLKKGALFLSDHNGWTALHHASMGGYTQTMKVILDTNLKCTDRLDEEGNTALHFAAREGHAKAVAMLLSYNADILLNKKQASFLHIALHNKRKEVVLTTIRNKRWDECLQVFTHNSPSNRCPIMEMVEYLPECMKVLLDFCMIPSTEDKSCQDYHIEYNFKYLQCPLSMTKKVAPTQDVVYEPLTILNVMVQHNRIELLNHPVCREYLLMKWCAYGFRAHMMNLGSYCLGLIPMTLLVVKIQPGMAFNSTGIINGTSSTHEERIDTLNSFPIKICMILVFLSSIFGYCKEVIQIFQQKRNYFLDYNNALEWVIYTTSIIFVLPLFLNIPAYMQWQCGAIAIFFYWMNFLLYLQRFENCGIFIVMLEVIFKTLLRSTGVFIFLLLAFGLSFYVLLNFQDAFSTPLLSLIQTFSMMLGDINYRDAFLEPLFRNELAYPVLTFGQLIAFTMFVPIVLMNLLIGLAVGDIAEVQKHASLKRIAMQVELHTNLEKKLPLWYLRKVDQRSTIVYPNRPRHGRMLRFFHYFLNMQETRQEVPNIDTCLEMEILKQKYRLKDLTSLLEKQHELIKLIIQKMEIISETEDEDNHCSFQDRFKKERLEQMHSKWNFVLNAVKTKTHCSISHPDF
# [4] = system: TRPV1 dependent CGRP release; assay: iCGRP release from isolated sciatic nerves or neuron enriched DRG cultures; format: cell-based, mouse
# DRG neurons = assay: Calcium imaging: 9,10-EpOME-evoked calcium transients in DRG neurons; format: cell-based, mouse
# Procedure: FIG. 2: Direct effects of 9,10-EpOME on DRG-neurons. (a) Application of 9,10-EpOME [10 μM, 30 s] causes calcium transients on DRG neurons which respond to high potassium (50 mM KCl, 30 s). A representative trace is shown. (b) Dose response relationship of 9,10-EpOME dependent calcium increases in DRG neurons related to the number of responding neurons Data represents the mean ±SEM of five measurements per concentration. (c) and (d) Calcium transients caused by 9,10-EpOME [10 μM, 30 s] can be disrupted using calcium-free medium containing EGTA (2 mM) washed in 2 minutes before and after 9,10-EpOME stimulation. Data represents the mean ±SEM of 24 (calcium-free) or 16 (control) neurons. (e) and (f) Calcium transients of 9,10-EpOME [10 μM, 30 s] can be blocked by a selective TRPV1 antagonist (AMG 9810, 1 μM) but not by a selective TRPA1 antagonist (HC-030031, 20 μM) washed in for two minutes prior to the second 9,10-EpOME stimulation. Data represents the mean ±SEM of 16 (control), 31 (AMG 9810) or 18 (HC-030031) neurons; **p<0.01, student's t-test.
# Next, the inventors characterized 9,10-EpOME concerning its effects on DRG-neurons in calcium imaging experiments. […]
# Sequence of TRPV1 (Q704Y3 whole entry): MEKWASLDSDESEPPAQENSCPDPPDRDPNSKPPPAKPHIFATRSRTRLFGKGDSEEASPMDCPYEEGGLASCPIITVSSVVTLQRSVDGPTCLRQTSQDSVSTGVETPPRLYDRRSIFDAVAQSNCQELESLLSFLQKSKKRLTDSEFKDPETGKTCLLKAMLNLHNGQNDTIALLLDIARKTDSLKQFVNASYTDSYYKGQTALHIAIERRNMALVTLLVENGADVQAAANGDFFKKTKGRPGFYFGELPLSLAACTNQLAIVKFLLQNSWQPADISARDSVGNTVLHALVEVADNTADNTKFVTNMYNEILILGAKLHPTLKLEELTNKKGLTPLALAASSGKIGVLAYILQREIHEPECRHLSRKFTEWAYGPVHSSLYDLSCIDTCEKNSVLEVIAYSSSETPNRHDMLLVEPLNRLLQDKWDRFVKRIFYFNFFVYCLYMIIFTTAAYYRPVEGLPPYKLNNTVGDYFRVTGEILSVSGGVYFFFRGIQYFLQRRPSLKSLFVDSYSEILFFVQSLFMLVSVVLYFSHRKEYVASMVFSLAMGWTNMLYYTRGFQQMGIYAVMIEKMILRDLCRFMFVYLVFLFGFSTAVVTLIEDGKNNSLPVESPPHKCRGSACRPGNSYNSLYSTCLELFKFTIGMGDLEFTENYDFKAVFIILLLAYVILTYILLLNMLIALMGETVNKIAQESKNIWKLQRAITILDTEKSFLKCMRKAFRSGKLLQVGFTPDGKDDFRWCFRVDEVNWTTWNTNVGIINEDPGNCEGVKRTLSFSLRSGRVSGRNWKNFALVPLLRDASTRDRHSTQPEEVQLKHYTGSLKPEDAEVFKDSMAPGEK
structure (smiles),measurement,setting,value
"CCCCC/C=C\CC1OC1CCCCCCCC(=O)O (stereo not shown) [9,10-EpOME, 9,10-epoxy-12Z-octadecenoic acid]",cAMP concentrations compared to vehicle,[1],significant increase
same,"amplitudes of the second capsaicin responses compared to vehicle, dose response","TRPV1; 9,10-EpOME 250 nM to 2 μM",dose dependent increase
same,response of DRG neurons to second capsaicin stimulus (TRPV1 sensitization),"TRPV1; 9,10-EpOME 1 μM for two minutes, capsaicin 200 nM, 15 s",significantly stronger response
same,"frequency of sEPSCs, substance alone","[2]; 1 mM as printed in legend, baseline 6.9±0.4 Hz, n=5 neurons",8.2±0.8 Hz
same,"frequency of sEPSCs, 2nd capsaicin plus 9,10-EpOME","[2]; capsaicin (1 mM) plus 9,10-EpOME (1 mM) as printed, n=5 neurons",18.7±1.1 Hz
same,amplitude of sEPSCs,[2]; n=5 neurons/group,no significant effects
same,GTPγS signal,[3],significantly increased signal
same,sensitization of mustard oil-dependent TRPA1-responses,TRPA1,could not be sensitized
same,CGRP-release from DRG cultures at the higher EpOME concentration,"[4]; 2.5 μM of 9,10-EpOME",no significant increase
same,release of iCGRP from neuron enriched DRG cultures,[4]; EpOME and capsaicin together versus either substance,significantly increased
same,CGRP release from sciatic nerves,"[4]; co-stimulation 9,10-EpOME 1 μM with capsaicin 500 nM",strong increase
same,calcium transient in DRG neurons,"DRG neurons; 10 μM, 30 s stimulation",caused a calcium transient in DRG neurons
same,maximum percentage of DRG neurons responding with calcium transients,"DRG neurons; 25 μM of 9,10-EpOME",10.3%
